Experimental data reported in the supplement of paper PMC4967469.
Lines with a small IC50 respond at low doses; a fit beyond the top or the lowest dose is shown as a bound at that dose. The AUC spans the tested range (256-fold, ending at the top dose) of the same fit; values near 1 show little effect. For part of these data: A top dose marked as inferred comes from the curve model; the source does not state it.

Experiments:
Assay in all cases: Viability of human cancer cell lines after 72 h of drug (GDSC screen)
Z-LLNle-CHO = compound: CCCC[C@@H](C=O)NC(=O)[C@H](CC(C)C)NC(=O)[C@H](CC(C)C)NC(=O)OCc1ccccc1 [Z-LLNle-CHO]; details: top dose 2.56 µM; top dose inferred
Protocol: (§1)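 Human cancer cell lines in 384-well plates, medium with 10% serum, drug for 72 h over a 256-fold dose range (nine 2-fold or five 4-fold steps up to the top dose). Adherent lines were fixed and stained with the nucleic acid dye Syto60, suspension lines read with resazurin; signal relative to control wells, capped at 0 and 100%. One two-parameter sigmoid per drug and line, fitted in a mixed model over all curves with the slope shared within a line.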

CI-1040 = compound: O=C(NOCC1CC1)c1ccc(F)c(F)c1Nc1ccc(I)cc1Cl [CI-1040]; details: top dose 10 µM; top dose inferred
Protocol: as §1

JW-7-52-1 = compound: CCC(=O)N1CCN(c2ccc(-n3c(=O)ccc4cnc5ccc(-c6cnc7ccccc7c6)cc5c43)cc2C(F)(F)F)CC1 [JW-7-52-1]; details: top dose 1.2 µM; top dose inferred
Protocol: as §1

Rapamycin = compound: CO[C@H]1C[C@@H]2CC[C@@H](C)[C@@](O)(O2)C(=O)C(=O)N2CCCC[C@H]2C(=O)O[C@H]([C@H](C)C[C@@H]2CC[C@@H](O)[C@H](OC)C2)CC(=O)[C@H](C)/C=C(\C)[C@@H](O)[C@@H](OC)C(=O)[C@H](C)C[C@H](C)/C=C/C=C/C=C/1C [Rapamycin]; details: top dose 0.1 µM; top dose inferred
Protocol: as §1

XL-880 = compound: COc1cc2c(Oc3ccc(NC(=O)C4(C(=O)Nc5ccc(F)cc5)CC4)cc3F)ccnc2cc1OCCCN1CCOCC1 [XL-880]; details: top dose 5.12 µM; top dose inferred
Protocol: as §1

Temozolomide = compound: Cn1nnc2c(C(N)=O)ncn2c1=O [Temozolomide]; details: top dose 30 µM
Protocol: as §1

Tubastatin A = compound: CN1CCc2c(c3ccccc3n2Cc2ccc(C(=O)NO)cc2)C1 [Tubastatin A]; details: top dose 20 µM
Protocol: as §1

ZG-10 = compound: CN(C)C/C=C/C(=O)Nc1ccc(C(=O)Nc2cccc(Nc3nccc(-c4cccnc4)n3)c2)cc1 [ZG-10]; details: top dose 10 µM; top dose inferred
Protocol: as §1

IPA-3 = compound: Oc1ccc2ccccc2c1SSc1c(O)ccc2ccccc12 [IPA-3]; details: top dose 32 µM; top dose inferred
Protocol: as §1

| Cell Line | AUC (Z-LLNle-CHO) | IC50 (Z-LLNle-CHO) | AUC (CI-1040) | IC50 (CI-1040) | AUC (JW-7-52-1) | IC50 (JW-7-52-1) | AUC (Rapamycin) | IC50 (Rapamycin) | AUC (XL-880) | IC50 (XL-880) | AUC (Temozolomide) | IC50 (Temozolomide) | AUC (Tubastatin A) | IC50 (Tubastatin A) | AUC (ZG-10) | IC50 (ZG-10) | AUC (IPA-3) | IC50 (IPA-3) |
| --- | --- | --- | --- | --- | --- | --- | --- | --- | --- | --- | --- | --- | --- | --- | --- | --- | --- | --- |
| LXF-289 (lung adenocarcinoma, adherent) | 0.75 | 823 nM | 0.818 | 5.5 µM | 0.351 | 29.3 nM | 0.909 | > 100 nM | 0.596 | 586 nM | 0.975 | > 30 µM | 0.978 | > 20 µM | 0.726 | 2700 nM | 0.987 | > 32 µM |
| ES1 (Ewing sarcoma, adherent) | 0.902 | > 2560 nM | 0.812 | 5.23 µM | 0.388 | 37.1 nM | 0.92 | > 100 nM | 0.398 | 169 nM | 0.978 | > 30 µM | 0.804 | 9.79 µM | 0.579 | 1030 nM | 0.734 | 9.2 µM |
| KP-N-YN (neuroblastoma, adherent) | 0.982 | > 2560 nM | 0.94 | > 10 µM | 0.959 | > 1200 nM | 0.953 | > 100 nM | 0.721 | 1460 nM | 0.985 | > 30 µM | 0.958 | > 20 µM | 0.573 | 1010 nM | 0.957 | > 32 µM |
| NCI-H345 (small cell lung carcinoma, suspension) | 0.937 | > 2560 nM | 0.969 | > 10 µM | 0.863 | 1120 nM | 0.98 | > 100 nM | 0.948 | > 5120 nM | 0.976 | > 30 µM | 0.969 | > 20 µM | 0.879 | > 10000 nM | 0.972 | > 32 µM |
| EW-24 (Ewing sarcoma, semi-adherent) | 0.899 | > 2560 nM | 0.968 | > 10 µM | 0.874 | 926 nM | 0.991 | > 100 nM | 0.853 | 3280 nM | 0.987 | > 30 µM | 0.989 | > 20 µM | 0.715 | 2310 nM | 0.937 | > 32 µM |
| HCC2218 (breast, suspension) | 0.867 | > 2560 nM | 0.977 | > 10 µM | 0.677 | 268 nM | 0.957 | > 100 nM | 0.862 | > 5120 nM | 0.982 | > 30 µM | 0.922 | > 20 µM | 0.743 | 3800 nM | 0.952 | > 32 µM |
| SK-LMS-1 (soft tissue, adherent) | 0.775 | 963 nM | 0.779 | 3.86 µM | 0.252 | 15.2 nM | 0.349 | 2.44 nM | 0.396 | 168 nM | 0.926 | > 30 µM | 0.848 | 13.8 µM | 0.638 | 1470 nM | 0.71 | 7.55 µM |
| HCC2157 (breast, suspension) | 0.885 | > 2560 nM | 0.931 | > 10 µM | 0.665 | 221 nM | 0.89 | > 100 nM | 0.987 | > 5120 nM | 0.96 | > 30 µM | 0.955 | > 20 µM | 0.618 | 1350 nM | 0.934 | > 32 µM |
| MFM-223 (breast, adherent) | 0.988 | > 2560 nM | 0.909 | > 10 µM | 0.988 | > 1200 nM | 0.989 | > 100 nM | 0.593 | 572 nM | 0.987 | > 30 µM | 0.985 | > 20 µM | 0.611 | 1260 nM | 0.811 | 16.8 µM |
| NCI-H2141 (small cell lung carcinoma, suspension) | 0.85 | 1850 nM | 0.979 | > 10 µM | 0.823 | 680 nM | 0.969 | > 100 nM | 0.729 | 1410 nM | 0.99 | > 30 µM | 0.985 | > 20 µM | 0.678 | 1930 nM | 0.988 | > 32 µM |
| NB13 (neuroblastoma, adherent) | 0.767 | 848 nM | 0.925 | > 10 µM | 0.427 | 48.6 nM | 0.459 | 4.9 nM | 0.536 | 396 nM | 0.99 | > 30 µM | 0.887 | 17.9 µM | 0.704 | 2160 nM | 0.658 | 5.18 µM |
| GRANTA-519 (B-cell lymphoma, suspension) | 0.789 | 1010 nM | 0.944 | > 10 µM | 0.83 | 650 nM | 0.919 | > 100 nM | 0.769 | 1740 nM | 0.98 | > 30 µM | 0.99 | > 20 µM | 0.821 | 5020 nM | 0.969 | > 32 µM |
| MMAC-SF (melanoma, adherent) | 0.696 | 584 nM | 0.296 | 0.162 µM | 0.318 | 22.7 nM | 0.901 | > 100 nM | 0.986 | > 5120 nM | 0.98 | > 30 µM | 0.93 | > 20 µM | 0.73 | 2920 nM | 0.978 | > 32 µM |
| KNS-42 (glioma, adherent) | 0.766 | 1130 nM | 0.944 | > 10 µM | 0.477 | 64 nM | 0.756 | 40.2 nM | 0.7 | 1310 nM | 0.969 | > 30 µM | 0.906 | > 20 µM | 0.778 | 4860 nM | 0.981 | > 32 µM |
| SK-MM-2 (myeloma, suspension) | 0.812 | 1450 nM | 0.978 | > 10 µM | 0.576 | 123 nM | 0.933 | > 100 nM | 0.586 | 555 nM | 0.983 | > 30 µM | 0.966 | > 20 µM | 0.831 | 6710 nM | 0.889 | > 32 µM |
| NCI-H82 (small cell lung carcinoma, suspension) | 0.865 | 2070 nM | 0.954 | > 10 µM | 0.586 | 127 nM | 0.978 | > 100 nM | 0.781 | 2010 nM | 0.987 | > 30 µM | 0.955 | > 20 µM | 0.687 | 2020 nM | 0.984 | > 32 µM |
| SNU-C1 (large intestine, suspension) | 0.948 | > 2560 nM | 0.363 | 0.218 µM | 0.655 | 249 nM | 0.544 | 8.74 nM | 0.903 | > 5120 nM | 0.962 | > 30 µM | 0.973 | > 20 µM | 0.6 | 1340 nM | 0.973 | > 32 µM |
| ES5 (Ewing sarcoma, adherent) | 0.968 | > 2560 nM | 0.938 | > 10 µM | 0.909 | > 1200 nM | 0.983 | > 100 nM | 0.37 | 132 nM | 0.977 | > 30 µM | 0.695 | 4.84 µM | 0.643 | 1660 nM | 0.848 | 29.3 µM |
| WSU-DLCL2 (B-cell lymphoma, suspension) | 0.874 | 1790 nM | 0.924 | > 10 µM | 0.866 | 781 nM | 0.985 | > 100 nM | 0.83 | 2500 nM | 0.992 | > 30 µM | 0.993 | > 20 µM | 0.992 | > 10000 nM | 0.893 | 26.8 µM |
| VCaP (prostate, adherent) | 0.852 | 2090 nM | 0.987 | > 10 µM | 0.641 | 187 nM | 0.948 | > 100 nM | 0.736 | 1550 nM | 0.986 | > 30 µM | 0.895 | > 20 µM | 0.826 | 6390 nM | 0.829 | 20.9 µM |
| NCI-H446 (small cell lung carcinoma, semi-adherent) | 0.866 | > 2560 nM | 0.983 | > 10 µM | 0.613 | 158 nM | 0.963 | > 100 nM | 0.523 | 371 nM | 0.962 | > 30 µM | 0.825 | 13.1 µM | 0.57 | 986 nM | 0.985 | > 32 µM |
| NCI-H720 (lung carcinoid, suspension) | 0.976 | > 2560 nM | 0.977 | > 10 µM | 0.803 | 538 nM | 0.666 | 17.3 nM | 0.8 | 2240 nM | 0.991 | > 30 µM | 0.978 | > 20 µM | 0.876 | 8470 nM | 0.979 | > 32 µM |
| CW-2 (large intestine, adherent) | 0.988 | > 2560 nM | 0.955 | > 10 µM | 0.974 | > 1200 nM | 0.964 | > 100 nM | 0.885 | > 5120 nM | 0.988 | > 30 µM | 0.97 | > 20 µM | 0.981 | > 10000 nM | 0.988 | > 32 µM |
| D-263MG (glioma, adherent) | 0.836 | 2240 nM | 0.76 | 4.23 µM | 0.72 | 366 nM | 0.968 | > 100 nM | 0.753 | 2040 nM | 0.976 | > 30 µM | 0.973 | > 20 µM | 0.611 | 1350 nM | 0.963 | > 32 µM |
| NALM-6 (B-cell leukaemia, suspension) | 0.766 | 800 nM | 0.897 | 8.82 µM | 0.24 | 15.7 nM | 0.928 | > 100 nM | 0.485 | 294 nM | 0.98 | > 30 µM | 0.733 | 5.04 µM | 0.647 | 1480 nM | 0.469 | 1.67 µM |
